According to PubChem BioAssay AID1645886 (National Center for Advancing Translational Sciences (NCATS), 2021):
Several values for one entry are separate records, joined by “and”; a condition that tells them apart may be missing. Equal values may be shown once. About 260 (1.6%) of roughly 16,000 compounds were called active. The shares of active, inactive and inconclusive entries below differ from those in the screen. Calls come from the whole dose curve; as a rule, active = well fitted inhibition curve with a large enough effect; inconclusive = small, poorly fitted or top-dose-only effect; inactive = no such curve, though single readings can be large or run the other way. Potencies of inconclusive entries are doubtful fits and often do not repeat.

These compounds were tested against Rap guanine nucleotide exchange factor 4 (Homo sapiens) (UniProt Q8WZA2) (assay: Validation qHTS for antagonist of cAMP-regulated guanine nucleotide exchange factor 4 (EPAC2)). Conditions: EPAC2 Rap1B BODIPY-GDP exchange, fluorescence; activity, negative = inhibition: at 112 µM (top of the series).
Sequence of UniProt Q8WZA2 (Q8WZA2 whole entry, looked up): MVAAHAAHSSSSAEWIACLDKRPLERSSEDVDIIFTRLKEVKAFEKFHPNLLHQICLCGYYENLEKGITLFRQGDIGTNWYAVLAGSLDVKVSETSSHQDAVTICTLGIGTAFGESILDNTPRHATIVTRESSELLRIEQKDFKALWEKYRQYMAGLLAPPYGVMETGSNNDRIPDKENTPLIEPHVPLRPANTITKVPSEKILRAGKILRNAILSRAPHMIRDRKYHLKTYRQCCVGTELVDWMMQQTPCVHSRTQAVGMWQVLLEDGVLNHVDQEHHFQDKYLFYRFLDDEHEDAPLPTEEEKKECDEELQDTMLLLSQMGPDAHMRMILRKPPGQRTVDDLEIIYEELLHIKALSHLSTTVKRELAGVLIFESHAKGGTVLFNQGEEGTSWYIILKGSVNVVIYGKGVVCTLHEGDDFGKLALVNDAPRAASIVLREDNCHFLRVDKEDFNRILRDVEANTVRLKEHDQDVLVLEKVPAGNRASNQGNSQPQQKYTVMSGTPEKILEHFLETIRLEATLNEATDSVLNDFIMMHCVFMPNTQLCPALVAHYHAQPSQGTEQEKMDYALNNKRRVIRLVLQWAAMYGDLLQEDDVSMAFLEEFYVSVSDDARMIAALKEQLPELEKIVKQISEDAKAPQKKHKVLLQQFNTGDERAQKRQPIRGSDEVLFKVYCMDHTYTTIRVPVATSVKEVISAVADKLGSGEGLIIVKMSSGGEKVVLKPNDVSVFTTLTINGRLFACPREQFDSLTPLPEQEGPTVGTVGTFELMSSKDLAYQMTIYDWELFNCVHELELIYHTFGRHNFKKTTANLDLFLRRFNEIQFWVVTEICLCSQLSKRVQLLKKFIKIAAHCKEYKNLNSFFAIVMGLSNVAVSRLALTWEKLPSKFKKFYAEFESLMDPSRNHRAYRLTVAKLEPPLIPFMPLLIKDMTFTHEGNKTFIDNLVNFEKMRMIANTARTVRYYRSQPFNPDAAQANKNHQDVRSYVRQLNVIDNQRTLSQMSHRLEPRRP
Outline: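 Fluorescent exchange read-out: 100 nM EPAC2 with 250 nM RAP1B–BODIPY-GDP and 50 uM GDP; BODIPY-GDP release lowers fluorescence. Read at 480/540 nm every 5 min for 30 min at room temperature; normalized to 6.5 mM cAMP.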
Note: nearly all actives have a fitted effect of over 40% in size.
Potency is the fitted concentration of half-maximal effect; tags give direction and shape of the fitted curve.
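Throughout, for activity, negative = inhibition: 100% = activation by cAMP agonist control.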

Structure (SMILES)	activity, negative = inhibition	Potency
C[N@+]12CCCC[C@@H]1CCC(=C(c1cccs1)c1cccs1)C2	inactive: 5.55%	–
O=C1C[C@H]2C=CCc3cccc(c32)CN1Cc1ccc(Br)cc1	–	inconclusive: 10 µM [inhibitor, partial curve, poor fit]
CCc1ccc(/C=C2/SC(=S)NC2=O)cc1	–	inconclusive: 8.91 µM [inhibitor, partial curve, poor fit]
CN=C1C=CC(=C(c2ccc(N(C)C)cc2)c2ccc(N(C)C)cc2)C=C1	–	inconclusive: 28.2 µM [inhibitor, single point]
O=C1CCN(CCc2ccccc2)CCN1[C@H](CSc1ccccc1)c1ccccc1	–	inconclusive: 11.2 µM [inhibitor, full curve]
CC(C)[C@H]1COCCS(=O)(=O)N1Cc1ccc(Cl)cc1	–	inconclusive: 56.2 µM [inhibitor, partial curve, poor fit]
COc1cccc2c1CCC1CC(=O)CC[C@@]21C (stereo not given in full)	–	inconclusive: 56.2 µM [inhibitor, partial curve]
CC(=O)Oc1ccc(C2(c3ccc(OC(C)=O)cc3)Oc3ccccc3NC2=O)cc1	–	inconclusive: 100 µM [inhibitor, partial curve, poor fit]
COc1ccc(CNc2ncncc2-c2ccccc2C)c(OC)c1	–	inconclusive: 28.2 µM [inhibitor, full curve]
COc1ncc2nc(-c3cccs3)c(=O)n(CCC#N)c2n1	inactive: -19.8%	–
C#CC1(O)CC[C@H]2[C@@H]3CCC4=CCCC[C@@H]4[C@H]3CC[C@@]21C (stereo not given in full)	–	inconclusive: 15.8 µM [inhibitor, single point]
COc1ccc(C[C@@H](C)NC[C@H](O)c2ccc(O)c(NC=O)c2)cc1	inactive: -0.703%	–
CC[C@H]1c2[nH]c3ccc(C(C)C)cc3c2[C@@H]2CCN3C(=O)CCC[C@H]1[C@H]23	–	inconclusive: 8.91 µM [inhibitor, full curve]
COc1ccccc1-c1cc(NCc2cccs2)ncn1	–	inconclusive: 70.8 µM [inhibitor, partial curve, poor fit]
O=C1c2ccccc2C(=O)c2cc(Cn3cc(-c4cccc(C(F)(F)F)c4)nn3)ccc21	inactive: 13.4%	–
COc1cccc(Nc2ncc3ncc(=O)n(Cc4cccs4)c3n2)c1	inactive: -13.6%	–
CCOC(=O)N1CCN(Cc2ccc3c(c2)CN(C(=O)c2ccc(C#CC(C)(C)O)o2)CCO3)CC1	–	inconclusive: 100 µM [inhibitor, single point]
O=c1cc(N2CCOCC2)oc2c(-c3ccccc3)cccc12	–	inconclusive: 17.8 µM [inhibitor, full curve, poor fit]
O=C(c1cnccn1)N1CCC2(CC1)CN(c1cccc(-c3ccccc3)c1)C2	–	inconclusive: 1.58 µM [inhibitor, full curve, poor fit]
Cc1cc(-c2cc(F)cc3c2OC(CNC(=O)CCn2cncn2)C3)ccc1F (stereo not given)	–	active: 79.4 µM

Structure (SMILES)	activity, negative = inhibition	Potency
O=C1NC(=O)C(Cc2ccccc2F)(C2CCN(Cc3cccn3-c3cccnc3)CC2)N1 (stereo not given)	inactive: 10.9%	–
N[C@@H](Cc1ccc(O)c(O)c1)C(=O)O	–	inactive
C[C@@H]1[C@H](c2ccccc2)OCCS(=O)(=O)N1Cc1ccccc1F	–	inconclusive: 56.2 µM [inhibitor, partial curve, poor fit]
O=C(c1ccco1)N1CCC[C@@]2(CCN(C(c3ccccc3)c3ccccc3)C2)C1	–	inconclusive: 28.2 µM [inhibitor, partial curve, poor fit]
CCCCCCCCOc1ccccc1C(=O)Nc1ccc(C(=O)OCC[N+](C)(CC)CC)cc1	–	inconclusive: 22.4 µM [inhibitor, partial curve, poor fit]
COc1ccccc1CC(=O)NCC1Cc2cc(F)cc(-c3cncnc3)c2O1 (stereo not given)	inactive: -20.2%	–
Cc1ncc2c(c1CNC(=O)c1cncs1)CCN(C(=O)c1ccc(-c3ccccc3)cc1)C2	–	inconclusive: 100 µM [inhibitor, single point]
CC(=O)N1CCC2(CC1)CCN(c1ccc(-c3ccccc3)cc1)CC2	–	inconclusive: 7.08 µM [inhibitor, full curve]
COc1ccc2[nH]cc(CCNc3cc(-c4ccccc4OC)ncn3)c2c1	–	inconclusive: 20 µM [inhibitor, full curve, poor fit]
CN1[C@@H]2CC(OC(=O)[C@H](CO)c3ccccc3)C[C@@H]1[C@H]1O[C@H]12 (stereo not given in full)	–	inconclusive: 79.4 µM [inhibitor, partial curve]
Cc1nc2sccn2c(=O)c1CCN1CCC(=C(c2ccc(F)cc2)c2ccc(F)cc2)CC1	–	inconclusive: 50.1 µM [inhibitor, partial curve]
COCc1c(C(=O)NC2CCCCCC2)cnn1-c1nccc(-c2cc(C)sc2C)n1	–	inconclusive: 12.6 µM [inhibitor, full curve]
C[C@H](CCC(=O)O)[C@H]1CC[C@H]2[C@@H]3C(=O)C[C@@H]4CC(=O)CC[C@]4(C)[C@H]3CC(=O)[C@]12C	–	inconclusive: 35.5 µM [inhibitor, single point]
CCOC(=O)C1=C(C)NC(C)=C(C(=O)OC)C1c1cccc(Cl)c1Cl (stereo not given)	–	inconclusive: 50.1 µM [inhibitor, partial curve] and inconclusive: 7.94 µM [inhibitor, full curve, poor fit]
Cc1[nH]c2ccccc2c1/C=C/c1ccc2ccccc2n1	inactive: -14.2%	–
O=C(Nc1ccccc1)N[C@H]1C[C@H](C(=O)O)Nc2cc(Cl)cc(Cl)c21	–	inconclusive: 89.1 µM [inhibitor, partial curve, poor fit]
O=C1c2c(O)ccc(O)c2C(=O)c2c(NCCNCCO)ccc(NCCNCCO)c21	–	inconclusive: 50.1 µM [inhibitor, partial curve]
CN(C)c1ccc(/C=C/c2ccnc3c2ccc2ccccc23)cc1	inactive: 33.4%	–
FC(F)(F)c1cc(CN2CC3(CCNCC3)C2)cc(C(F)(F)F)c1	inconclusive: -31.3% [inhibitor]	–
OCc1cc([C@@H](O)CNCCCCCCOCCCCc2ccccc2)ccc1O	–	inconclusive: 56.2 µM [inhibitor, partial curve, poor fit]
